# Reference: paper PMC6602471
# Some of the results follow. At the low end of the ranking, values are background and their order means little.
# Molecular target: T1, ELK1 (UniProt P19419)
# T1 sequence: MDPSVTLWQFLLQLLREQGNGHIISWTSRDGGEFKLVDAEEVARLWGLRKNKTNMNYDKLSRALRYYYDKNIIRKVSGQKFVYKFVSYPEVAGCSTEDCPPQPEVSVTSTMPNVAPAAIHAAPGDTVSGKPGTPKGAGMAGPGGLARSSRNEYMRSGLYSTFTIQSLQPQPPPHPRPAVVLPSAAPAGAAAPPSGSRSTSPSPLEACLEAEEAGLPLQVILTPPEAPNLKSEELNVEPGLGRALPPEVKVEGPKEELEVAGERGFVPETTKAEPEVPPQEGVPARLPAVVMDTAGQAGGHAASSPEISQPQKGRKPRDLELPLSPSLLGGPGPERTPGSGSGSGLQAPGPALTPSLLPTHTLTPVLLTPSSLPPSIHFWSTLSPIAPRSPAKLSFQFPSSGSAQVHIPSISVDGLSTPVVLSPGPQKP
# Assay: custom PBM
# Settings: custom protein-binding microarray; buffer, salt, pH and temperature not stated; high values mean tight binding; double strand, one strand shown
row,Sequence,binding signal (log fluorescence intensity)
1,GGAAAAAGGCCCAAGGTAACACCGGAAGTGGGCTTAGTCTTGATTCGCTTGACGCTGCTG,10.8
2,TACTGGCTTATATATGCGAATGCACATGAATAGACCGTCTTGATTCGCTTGACGCTGCTG,8.78
3,CACAATTTTCACAGTAATGTAGCACGCGTAACTCCTGTCTTGATTCGCTTGACGCTGCTG,8.82
4,CTGGGACTTGACCCAACTCTGCAACGTGGGTCGTTTGTCTTGATTCGCTTGACGCTGCTG,8.92
5,GGAAAAAGGCCCAGGGTAACACCGGCAGTGGGCTTAGTCTTGATTCGCTTGACGCTGCTG,8.99
6,TCCAGCTACCAGCTCCACCCACTTCAGGCCTTGTAGGTCTTGATTCGCTTGACGCTGCTG,8.99
7,TGTCGGGTAAGGGAATGTAGATCACGTGGATGAAAAGTCTTGATTCGCTTGACGCTGCTG,8.97
8,TAAAGGGAAGACCGTTGTGGTAGTTCCGGGTATTAAGTCTTGATTCGCTTGACGCTGCTG,11
9,CACAATTTTTACAGTAATGTAGCACGCGTAAGTCCTGTCTTGATTCGCTTGACGCTGCTG,8.86
10,GGAAAAAGGCCCAGGGAAACACCGGAAGTGGGCTTAGTCTTGATTCGCTTGACGCTGCTG,11.4
11,TGTCGTGTAAGGGAATGTAGATCACGTGAATGAAAAGTCTTGATTCGCTTGACGCTGCTG,8.89
12,AAGCATAGGACTTCTTCCCTGAAGCAATTGATAACCGTCTTGATTCGCTTGACGCTGCTG,8.87
13,TACAGGGAAGACGGTTGTGGTAGTTCCGGGTATTAAGTCTTGATTCGCTTGACGCTGCTG,11.1
14,TGTCGGGTAAGGGAATGTAGATCACGTGAAGGAAAAGTCTTGATTCGCTTGACGCTGCTG,8.84
15,CGGAAGTGTCGTAAACGTCGGATATTCGGTTCTTCTGTCTTGATTCGCTTGACGCTGCTG,9.16
16,CGGAAGTGTCGTACACGTCGGATATCCGGTTCTTCTGTCTTGATTCGCTTGACGCTGCTG,12.2
17,GGAAAAAGGCCCAGGGTAACGCCGGAAGTGGGCTTAGTCTTGATTCGCTTGACGCTGCTG,10.6
18,CGGAAGTGTCGTAAACGTCAGATATCCGGTTCTTCTGTCTTGATTCGCTTGACGCTGCTG,11.2
19,TACTGACTTATATATGCCAATGCACATGAATAGACCGTCTTGATTCGCTTGACGCTGCTG,8.93
20,TACTGACATATATATGCGAATGCACATGAATAGACCGTCTTGATTCGCTTGACGCTGCTG,8.78
21,TAAAGGGAAGATGGTTGTGGTAGTTCCGGGTATTAAGTCTTGATTCGCTTGACGCTGCTG,10.9

row,Sequence,binding signal (log fluorescence intensity)
1,TACTGACTTATATATGCGAATGCACATGAATAAACCGTCTTGATTCGCTTGACGCTGCTG,8.87
2,GTTGCTGCGGTGCATACCCCACCGGATGTGACCCCGGTCTTGATTCGCTTGACGCTGCTG,10.2
3,CACAATTTTTACAGTAAGGTAGCACGCGTAACTCCTGTCTTGATTCGCTTGACGCTGCTG,8.86
4,TCGGGCTACCAGCTCCACCCACTTCAGGCCTTGTAGGTCTTGATTCGCTTGACGCTGCTG,8.76
5,GTGTATAGGATCCCATCCAACACACGTGCTAAAATGGTCTTGATTCGCTTGACGCTGCTG,8.85
6,TCCGACTACCAGCTCCACCCACTTCAGGCCTTGTAGGTCTTGATTCGCTTGACGCTGCTG,8.95
7,TGTCGGGTAAGGGAATGTAGATCACGTAAATGAAAAGTCTTGATTCGCTTGACGCTGCTG,8.85
8,TCCGGCTACCAGCTCAACCCACTTCAGGCCTTGTAGGTCTTGATTCGCTTGACGCTGCTG,8.9
9,TCCGGCTACCAGCTCCACCCGCTTCAGGCCTTGTAGGTCTTGATTCGCTTGACGCTGCTG,8.71
10,GGAAAAAGGCCCAGGGTTACACCGGAAGTGGGCTTAGTCTTGATTCGCTTGACGCTGCTG,11
11,CAGCATAGGATTTCTTCCCTGAAGCAATTGATAACCGTCTTGATTCGCTTGACGCTGCTG,8.86
12,CTGGGACTTGACCCAATTCTGCCACGTGGGTCGTTTGTCTTGATTCGCTTGACGCTGCTG,8.78
13,TGTCGGGTACGGGAATGTAGATCACGTGAATGAAAAGTCTTGATTCGCTTGACGCTGCTG,8.88
14,AACTGACTTATATATGCGAATGCACATGAATAGACCGTCTTGATTCGCTTGACGCTGCTG,8.87
15,CACAATTTTTACAGGAATGTAGCACGCGTAACTCCTGTCTTGATTCGCTTGACGCTGCTG,8.82
16,TGTCGGGTAAGGGAATGTAGATCGCGTGAATGAAAAGTCTTGATTCGCTTGACGCTGCTG,8.87
17,GCTGCTGCGGTGCATAACCCACCGGATGTGACCCCGGTCTTGATTCGCTTGACGCTGCTG,10.2
18,TGCGGCTACCAGCTCCACCCACTTCAGGCCTTGTAGGTCTTGATTCGCTTGACGCTGCTG,8.85
19,GATTAACTTCTGCCCTTATTCGCACGTGCCATAACAGTCTTGATTCGCTTGACGCTGCTG,9.06
20,GCTGCTGCGGTGCATACCCCACCGGATGTGAGCCCGGTCTTGATTCGCTTGACGCTGCTG,10.2
21,CACAATTTTTACAGTAATGTAGCAGGCGTAACTCCTGTCTTGATTCGCTTGACGCTGCTG,9.01

row,Sequence,binding signal (log fluorescence intensity)
1,CAGCATAGGACTTCTTCCCTCAAGCAATTGATAACCGTCTTGATTCGCTTGACGCTGCTG,8.84
2,GGAAAAAGGCCCAGGGTAACACCGGAAGTGTGCTTAGTCTTGATTCGCTTGACGCTGCTG,10.8
3,CGGAACTGTCGTAAACGTCGGATATCCGGTTCTTCTGTCTTGATTCGCTTGACGCTGCTG,12.5
4,GGACAAAGGCCCAGGGTAACACCGGAAGTGGGCTTAGTCTTGATTCGCTTGACGCTGCTG,11.1
5,GGAAAAAGGCCCAGGGTAACACCGGAAGGGGGCTTAGTCTTGATTCGCTTGACGCTGCTG,10
6,TGTCGGGTAAGGGAATGTAGACCACGTGAATGAAAAGTCTTGATTCGCTTGACGCTGCTG,9.03
7,GCTGCTGCGGTGCATTCCCCACCGGATGTGACCCCGGTCTTGATTCGCTTGACGCTGCTG,10
8,GATTAATTTCTGCCATTATTCGCACGTGCCATAACAGTCTTGATTCGCTTGACGCTGCTG,8.92
9,CAGCATAGCACTTCTTCCCTGAAGCAATTGATAACCGTCTTGATTCGCTTGACGCTGCTG,8.92
10,GGAAAAAGGCCCAGGGTAACACAGGAAGTGGGCTTAGTCTTGATTCGCTTGACGCTGCTG,9.55
11,TACTGACTTATATATCCGAATGCACATGAATAGACCGTCTTGATTCGCTTGACGCTGCTG,9.23
12,GATGCTGCGGTGCATACCCCACCGGATGTGACCCCGGTCTTGATTCGCTTGACGCTGCTG,10.2
13,CTGGGACTTGACCCAACTCTGCCACGTGGGTCGTCTGTCTTGATTCGCTTGACGCTGCTG,9.03
14,CAGCATAGGACTTCCTCCCTGAAGCAATTGATAACCGTCTTGATTCGCTTGACGCTGCTG,12.2
15,CAGCATAGGACTTCTTCCCCGAAGCAATTGATAACCGTCTTGATTCGCTTGACGCTGCTG,9.11
16,CACAATTTTTACAGTAATGTAGCACGCGTCACTCCTGTCTTGATTCGCTTGACGCTGCTG,8.84
17,TGTCGGGTAAGGGTATGTAGATCACGTGAATGAAAAGTCTTGATTCGCTTGACGCTGCTG,8.76
18,GTGTTTAGGATCCCATCCAACACACGTGTTAAAATGGTCTTGATTCGCTTGACGCTGCTG,8.92
19,TGTCGGGTAAGGCAATGTAGATCACGTGAATGAAAAGTCTTGATTCGCTTGACGCTGCTG,8.8
20,TCCGGCTACCAGGTCCACCCACTTCAGGCCTTGTAGGTCTTGATTCGCTTGACGCTGCTG,8.9
21,TACTGACCTATATATGCGAATGCACATGAATAGACCGTCTTGATTCGCTTGACGCTGCTG,8.82

row,Sequence,binding signal (log fluorescence intensity)
1,TAAAGGGAAGACGGTTGTGGTAGTTCCGGGTAATAAGTCTTGATTCGCTTGACGCTGCTG,11.3
2,CAGCATAGGAATTCTTCCCTGAAGCAATTGATAACCGTCTTGATTCGCTTGACGCTGCTG,8.81
3,CTGGGACTTGACCCAACTCTGCCACGTGGGTCGTGTGTCTTGATTCGCTTGACGCTGCTG,8.82
4,GGTGCTGCGGTGCATACCCCACCGGATGTGACCCCGGTCTTGATTCGCTTGACGCTGCTG,10.3
5,GGAAAAAGGCCCAGGGTAACAACGGAAGTGGGCTTAGTCTTGATTCGCTTGACGCTGCTG,10
6,TGTCGGGTAAGGGAATGTAGATCCCGTGAATGAAAAGTCTTGATTCGCTTGACGCTGCTG,8.99
7,TACTGACTTATATATGCGATTGCACATGAATAGACCGTCTTGATTCGCTTGACGCTGCTG,8.96
8,GATTAATTTCGGCCCTTATTCGCACGTGCCATAACAGTCTTGATTCGCTTGACGCTGCTG,9.02
9,TGTCGGGTAAGGGAATGTAGATCACGTGACTGAAAAGTCTTGATTCGCTTGACGCTGCTG,8.96
10,TAAAGGGTAGACGGTTGTGGTAGTTCCGGGTATTAAGTCTTGATTCGCTTGACGCTGCTG,11
11,TGAAGGGAAGACGGTTGTGGTAGTTCCGGGTATTAAGTCTTGATTCGCTTGACGCTGCTG,11
12,TGTCGCGTAAGGGAATGTAGATCACGTGAATGAAAAGTCTTGATTCGCTTGACGCTGCTG,8.89
13,GTGTATAGGATCCAATCCAACACACGTGTTAAAATGGTCTTGATTCGCTTGACGCTGCTG,8.9
14,CACAATTTTTACAGTAGTGTAGCACGCGTAACTCCTGTCTTGATTCGCTTGACGCTGCTG,8.95
15,GCTGCTGCGGTGCATACCCCACCGGATGTGCCCCCGGTCTTGATTCGCTTGACGCTGCTG,10.2
16,GATTAATTTCCGCCCTTATTCGCACGTGCCATAACAGTCTTGATTCGCTTGACGCTGCTG,12.5
17,GATTAATTTCTGCCCTTATTCGCACGTGCCATAACTGTCTTGATTCGCTTGACGCTGCTG,8.83
18,GATTAATTTCTGCCCTTATTCGCACGTACCATAACAGTCTTGATTCGCTTGACGCTGCTG,8.83
